# The whole screen tested about 420,000 compounds, of which about 50,000 (12%) were called active. Inconclusive means that the source gave no clear call. Such entries were picked first, then a sample of the others. The call rests on the fitted dose curve; in most records, active means well fitted inhibition curve with a large enough effect; inconclusive means small, poorly fitted or top-dose-only effect; inactive means flat fitted curve, though single readings scatter. Potencies of inconclusive entries are left out as doubtful fits.
# Assay: qHTS for Inhibitors of human tyrosyl-DNA phosphodiesterase 1 (TDP1): qHTS in cells in presence of CPT; further: nearly all actives have a fitted effect of over 55% in size
# Conditions: chicken DT40 Tdp1-/-;hTDP1 cells + 20 nM CPT, ATP luminescence, 48 h; activity change, negative = growth inhibition: at 46.2 µM (top of the series) unless noted
# Method in brief: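 Cell growth measured by CellTiter-Glo luminescence after a minimum 48 h, 37 C compound exposure with 20 nM CPT in Tdp1-knockout DT40 cells stably expressing hTDP1, seeded 400/well; qHTS titration format.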
# On the % scale 0 is the no-effect control and ±100 the full control effect; potency means the concentration at half of the fitted maximal effect; tags describe the fitted curve by direction and shape.
Structure (SMILES),Potency,"activity change, negative = growth inhibition"
CC(C)Nc1ncnc2c1ncn2[C@H]1CN(Cc2ccncc2)C[C@@H](CO)O1,"inconclusive [inhibitor, single point]",–
O=C(Nc1nc2c(F)cc(F)cc2s1)C1CCN(C(=O)c2ccc(F)cc2)CC1,"inconclusive [inhibitor, single point]",–
O=C(Nc1ccccc1C(=O)O)c1cc(S(=O)(=O)Nc2ccccc2)ccc1Cl,"inconclusive [inhibitor, partial curve]",–
COc1ccc(CCNc2ncnc3onc(-c4ccc(Cl)cc4)c23)c(OC)c1,"inconclusive [inhibitor, single point]",–
O=C(C[C@H]1C=C[C@@H](NS(=O)(=O)c2ccccc2)[C@@H](CO)O1)NCc1ccc(Cl)c(Cl)c1,"inconclusive [inhibitor, single point]",–
CCc1ccc(NC(=O)CN2C(=O)C3CCCN3c3ccc(S(=O)(=O)N(CC)CC)cc32)cc1 (stereo not drawn),"inconclusive [inhibitor, single point]",–
O=C(c1cccc(NS(=O)(=O)c2ccccc2)c1)N1CCCCC1,–,inactive: -1.42%
OCC(O)C(O)C(O)C(O)C=Nc1ccc(/C=C/c2ccnc3ccccc23)cc1 (stereo not drawn),"inconclusive [inhibitor, partial curve]",–
O=C(OCc1ccccc1)N1CCC2CC1c1cc(-c3ccc(F)cc3)ccc12 (stereo not drawn),"inconclusive [inhibitor, single point]",–
CCC(C)(C)NC(=O)C(c1cccc(OC)c1OC)N(CC(C)C)C(=O)CCC(=O)Nc1cc(C)on1 (stereo not drawn),"inconclusive [inhibitor, partial curve, poor fit]",–
O=C(COC(=O)c1cc(-c2cccc(Br)c2)nc2ccccc12)NCC1CCCO1 (stereo not drawn),active: 0.0164 µM,–
CCc1ccc(/C=N/NC(=S)NCCc2ccccc2)cc1,"inconclusive [inhibitor, single point]",–
CCN(CC(=O)NCc1cccs1)C(=O)c1ccc(-c2cccc(C(F)(F)F)c2)o1,"inconclusive [inhibitor, single point]",–
COc1ccc2cc(C3CC(c4cccs4)=NN3C(C)=O)c(Cl)nc2c1 (stereo not drawn),–,inactive: -0.0019%
Cc1ccc(N(CC(O)Cn2c3ccccc3c3ccccc32)S(=O)(=O)c2ccc(F)cc2)cc1 (stereo not drawn),"inconclusive [inhibitor, single point]",–
Cc1ccc(NC(=O)CN(C)C(=O)c2ccc(Cl)c(S(=O)(=O)NCc3ccco3)c2)cc1,–,inactive: -11%
Cc1ccc2nc3sc(C(=O)N4CCOCC4)c(N)c3cc2c1,–,inactive: -24.2%
Cc1ccccc1Oc1nc2ccccn2c(=O)c1/C=C(\C#N)C(=O)Nc1c(C)n(C)n(-c2ccccc2)c1=O,"inconclusive [inhibitor, partial curve]",–
COc1cccc2ccc(CC(O)(c3ccccc3)c3ccccc3)nc12,"inconclusive [inhibitor, single point]",–
COc1ccc(-c2noc(C3CCCN(S(=O)(=O)c4cccc(Cl)c4C)C3)n2)cc1OC (stereo not drawn),"inconclusive [inhibitor, single point]",–
O=C(c1cccc(Cl)c1)N1CCC2CC1c1cc(-c3ccccc3)ccc12 (stereo not drawn),"inconclusive [inhibitor, single point]",–
O=C(CCl)Nc1cc(SCC(O)CO)cc([N+](=O)[O-])c1 (stereo not drawn),active: 4.61 µM,–

Structure (SMILES),Potency,"activity change, negative = growth inhibition"
CSc1ccccc1NC(=O)Nc1ccccc1Cl,"inconclusive [inhibitor, single point]",–
Cc1[nH]c(C)c(S(=O)(=O)Nc2ccc(OC(F)(F)F)cc2)c1C(=O)N1CCCCC1,active: 20.6 µM,–
Cc1ccc(NC(=O)c2cc3ccccc3o2)cc1,–,inactive: 1.36%
Cc1ccc(CSc2ccc(C(=O)N3CCOCC3)cc2[N+](=O)[O-])cc1,–,inactive: -2.38%
O=C(Cn1nc(C(=O)O)c2ccccc2c1=O)Nc1cccc(S(=O)(=O)N2CCCCC2)c1,–,inactive: -25%
Cc1ccc(Nc2nc(NCC3CCCO3)nc(N)c2[N+](=O)[O-])cc1 (stereo not drawn),"inconclusive [inhibitor, partial curve]",–
Cc1cccc(C=CC(=O)c2ccccc2)c1,"inconclusive [inhibitor, single point]",–
C=CCn1c(=O)[nH]c2cc(C(=O)N3CC=C(c4ccccc4)CC3)ccc2c1=O,–,inconclusive: -36% [inhibitor]
C[N+](C)(CC#Cc1ccccc1)CC(=O)c1ccc(Cl)cc1,"inconclusive [inhibitor, single point]",–
COC(=O)c1c(C)[nH]c(C(=O)NCCc2ccc(S(N)(=O)=O)cc2)c1C,–,inactive: -0.0885%
COc1ccc(C(CNc2ncnc3sccc23)N(C)C)cc1OC (stereo not drawn),–,inactive: 0.133%
CCCCN(C)C(=O)Cn1c(=O)oc2cc(S(=O)(=O)N3CC(C)CC(C)C3)ccc21 (stereo not drawn),"inconclusive [inhibitor, single point]",–
C/C(=N\NC(=O)C1CC1c1ccccc1)c1ccc(C)s1 (stereo not drawn),"inconclusive [inhibitor, single point]",–
COc1ccc(Sc2ccc(/C=C3\C(=O)NN(c4ccccc4)C3=O)o2)cc1,"inconclusive [inhibitor, single point]",–
Cc1ccc2cc(CN(CCCN(C)C)C(=S)NCc3ccccc3)c(=O)[nH]c2c1C,"inconclusive [inhibitor, single point]",–
Cc1c(C(=O)c2ccc(F)cc2)c2ccccn2c1CCc1ccccn1,"inconclusive [inhibitor, partial curve, poor fit]",–
CCCNC(=O)Cn1nc(-c2ccc(C)c(C)c2)c2cnc3ccc(OC)cc3c21,active: 10.3 µM,–
CN(c1ccccc1)S(=O)(=O)c1cccc(C(=O)NCCc2ccc(O)c(O)c2)c1,active: 8.2 µM,–
CCn1nnc(NC(=O)COc2ccc(C3CCCCC3)cc2)n1,"inconclusive [inhibitor, single point]",–
CCC(=O)Nc1ccc(NC(=O)CCc2ccccc2)cn1,–,inactive: 0.909%
Cc1ccc(S(=O)(=O)NNC(=O)Nc2cccc(F)c2)c(C)c1,"inconclusive [inhibitor, single point]",–

# From PubChem BioAssay AID686979 (National Center for Advancing Translational Sciences (NCATS), 2013)
